# In PubChem BioAssay AID485281 (National Center for Advancing Translational Sciences (NCATS), 2010):
# About 260 (0.074%) of roughly 350,000 compounds were called active. The shares of active, inactive and inconclusive entries below differ from those in the screen. The call rests on the fitted dose curve; in most records, active means well fitted inhibition curve with a large enough effect; inconclusive means small, poorly fitted or top-dose-only effect; inactive means no such curve, though single readings can be large or run the other way. Where the call is inconclusive, the potency comes from a doubtful curve fit.
# Target: Ferritin light chain (Equus caballus) (UniProt P02791)
# Assay: qHTS Assay for Identification of Novel General Anesthetics; further: nearly all actives have a fitted effect of over 20% in size
# Conditions: apoferritin/1-aminoanthracene competitive binding, fluorescence; activity change, negative = displacement: at 77.5 µM (top of the series)
# Summary of the method: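 Horse-spleen apoferritin (10 uM) was mixed with 50% saturated 1-aminoanthracene in PBS, exposed to compounds for 10 min at room temperature, and read for fluorescence (ex 380 nm, em 535 nm). Competitive displacement was fitted with a four-parameter Hill equation.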
# On the % scale 0 is the no-effect control and ±100 the full control effect; potency means the concentration at half of the fitted maximal effect; tags describe the fitted curve by direction and shape.
# Sequence of UniProt P02791 (P02791 whole entry, looked up): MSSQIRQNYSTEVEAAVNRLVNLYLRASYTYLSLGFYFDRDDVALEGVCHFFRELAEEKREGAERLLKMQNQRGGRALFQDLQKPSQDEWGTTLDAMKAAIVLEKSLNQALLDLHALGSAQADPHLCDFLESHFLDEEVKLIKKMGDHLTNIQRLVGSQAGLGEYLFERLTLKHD
SMILES,Potency,"activity change, negative = displacement"
Cc1nn(-c2ccccc2)c2c1C1(C(=O)N(C(C)C)c3ccccc31)C(C#N)=C(N)O2 (configuration not stated),"inconclusive: 20 µM [inhibitor, partial curve]",–
COc1ccc2[nH]c(=O)c(CN(C3CCCCC3)C(c3nnnn3Cc3ccco3)C(C)C)cc2c1 (configuration not stated),"inconclusive: 10 µM [inhibitor, partial curve]",–
Cc1cc(F)ccc1S(=O)(=O)N(C(=O)c1ccncc1)c1ccc(OC(=O)c2ccncc2)cc1,"inconclusive: 39.8 µM [inhibitor, single point]",–
CCOc1ccc(N2CC(NC(=O)c3ccc4c(c3)OCO4)CC2=O)cc1 (configuration not stated),–,inactive: 4.81%
CCn1c(SCC(=O)c2ccc(NS(=O)(=O)c3ccccc3)cc2)nnc1-c1cccs1,"inconclusive: 39.8 µM [inhibitor, single point]",–
CCOC(=O)c1sc2nc(NC(=O)C(C)(C)C)sc2c1C,"inconclusive: 31.6 µM [inhibitor, partial curve]",–
CCN(CC)S(=O)(=O)c1cccc(-c2nnc(SCCCC(=O)c3ccccc3)o2)c1,"inconclusive: 15.8 µM [inhibitor, partial curve]",–
CC(=O)c1cccc(NC(=O)c2nc(-c3ccccc3)oc2C)c1,"inconclusive: 25.1 µM [inhibitor, single point]",–
c1csc(-c2nc3nc4ccccc4nc3n2Cc2ccc3c(c2)OCO3)c1,–,inactive: -15.7%
COc1cc(NC(=O)Nc2ccc3c(c2)OCO3)cc(OC)c1OC,–,inactive: 0.972%
COc1cccc(/C=N/NC(=O)c2ccncc2)c1OC(=O)c1ccc(Br)cc1,–,inactive: -11.9%
Cc1ccc(NC(=O)Nc2nnc(SCC(=O)N(C(C)C)C(C)C)s2)cc1,"inconclusive: 14.1 µM [inhibitor, partial curve]",–
CC(C)Cc1cc(C(=O)NCc2ccc(Cl)cc2)no1,"inconclusive: 2.51 µM [inhibitor, full curve]",–
NNC(=O)c1cccc(COc2cccc(Br)c2)c1,"inconclusive: 20 µM [inhibitor, partial curve]",–
NS(=O)(=O)c1cccc(NC(=O)COC(=O)CCCc2c[nH]c3ccccc23)c1,"inconclusive: 35.5 µM [inhibitor, single point]",–
CCN(C(=O)c1sc(N)c(C#N)c1C)C1CCCCC1,"inconclusive: 25.1 µM [inhibitor, partial curve]",–
COc1ccc(OC)c(CCNC(=O)c2c(C)oc3ncn(CC(C)C)c(=O)c23)c1,"inconclusive: 3.16 µM [inhibitor, full curve, poor fit]",–
Cc1cccc(Cn2ccc(NC(=O)c3ccc4c(c3)OCO4)n2)c1,"inconclusive: 25.1 µM [inhibitor, partial curve]",–
O=C(COC(=O)C1(c2ccc(F)cc2)CCCC1)NCc1ccc2c(c1)OCO2,"inconclusive: 31.6 µM [inhibitor, partial curve]",–
Cc1cc(C(=O)OCCN2C(=O)c3ccccc3C2=O)c2ccccc2n1,"inconclusive: 35.5 µM [inhibitor, partial curve]",–
COc1cc(CNCCN2CCOCC2)ccc1OCc1ccc(Cl)cc1,"inconclusive: 3.55 µM [inhibitor, full curve]",–
Cc1nc(C)c(C(=O)Nc2ccc(Oc3ccccc3)cc2)o1,–,inactive: -1.19%
O=C(NCc1ccccn1)c1cccc(NS(=O)(=O)c2cccc(Cl)c2)c1,"inconclusive: 31.6 µM [inhibitor, single point]",–

SMILES,Potency,"activity change, negative = displacement"
O=C(CN1CCCC1)Nc1ccc(OCc2ccccc2)cc1,"inconclusive: 12.6 µM [inhibitor, partial curve]",–
COc1ccc(C(=O)c2ccccc2O)c(O)c1,–,inactive: -0.114% [at 29.3 µM]
CCc1cc(=O)oc2c3c(cc(OCC(=O)NCc4ccco4)c12)OC(C)(C)CC3,"inconclusive: 5.62 µM [inhibitor, full curve]",–
Cc1ccc(Nc2c(-c3ccccn3)nc3ccc(Br)cn23)cc1,–,inactive: 5.32%
CCOC(=O)c1cc2c(ccn2C)n1CC(=O)Nc1ccc(F)cc1,–,inactive: -1.98%
COc1ccccc1NC(=O)c1c(-c2ccc(C)cc2)nnc2ccccc12,"inconclusive: 17.8 µM [inhibitor, partial curve]",–
N/C(=N\OC(=O)CCCCCN1C(=O)c2ccccc2C1=O)c1ccccn1,"inconclusive: 35.5 µM [inhibitor, partial curve]",–
COC(=O)CNc1nc(Cl)nc(NC2CCCCC2)n1,"inconclusive: 25.1 µM [inhibitor, partial curve]",–
COc1ccc(S(=O)(=O)N2CCC(c3nc4ccccc4s3)CC2)cc1OC,–,inactive: 0.816%
Nc1nc(-c2ccc3ccccc3c2)cs1,"inconclusive: 35.5 µM [inhibitor, partial curve]",–
COc1ccccc1Oc1cc(C#N)c(C#N)cc1-n1nnc2ccccc21,"inconclusive: 2.82 µM [inhibitor, full curve, poor fit]",–
C=CCN(CC=C)C(=S)NC(=O)Cc1cccc2ccccc12,"inconclusive: 35.5 µM [inhibitor, single point]",–
CCCNC(=O)c1ccc2c(c1)N=C(CCC)c1ccccc1S2,"inconclusive: 7.94 µM [inhibitor, partial curve]",–
COc1cccc(NC(=O)Cn2nc(N3CCN(c4ccccc4)CC3)ccc2=O)c1,"inconclusive: 25.1 µM [inhibitor, partial curve]",–
COc1cc(/C=C2/C(=N)N3C=CSC3=NC2=O)ccc1OCCCOc1c(C)cccc1C,"inconclusive: 28.2 µM [inhibitor, partial curve]",–
COc1ccc(CN=Cc2c(C(F)(F)F)[nH][nH]c2=O)cc1,"inconclusive: 50.1 µM [inhibitor, single point]",–
CCn1nccc1C(=O)Nc1cc(Cl)ccc1Cl,–,inactive: -7.16%
O=C(NC(=S)Nc1ccc(Oc2ccc(Cl)cc2)cc1)c1ccccc1,"inconclusive: 17.8 µM [inhibitor, partial curve]",–
O=C(c1ccccc1)N(Cc1ccccc1)c1ccccn1,"inconclusive: 39.8 µM [inhibitor, partial curve]",–
CC1CC(C)CN(C(=O)C2CCN(S(=O)(=O)c3ccc4c(c3)CC(C)N4C(=O)C3CC3)CC2)C1 (configuration not stated),"inconclusive: 7.94 µM [inhibitor, partial curve]",–
COc1ccc(-n2c(SCC(=O)Nc3nccs3)nc3sc4c(c3c2=O)CCN(C)C4)cc1,"inconclusive: 50.1 µM [inhibitor, partial curve]",–
CCOC(=O)CC1C(=O)NCCN1C(=O)c1ccc(C)cc1 (configuration not stated),–,inactive: -8.68%
COc1ccccc1N(CC(=O)NC1CC2CCC1C2)S(=O)(=O)c1ccc(C)cc1 (configuration not stated),–,inactive: 4.56%

SMILES,Potency,"activity change, negative = displacement"
COc1ccc(NCc2nn(CC(=O)c3ccc(Br)cc3)c3[n+]2CCCCC3)cc1,"inconclusive: 11.2 µM [inhibitor, partial curve, poor fit]",–
CC(C)(C)NC(=O)c1ccc(Sc2ccccc2)c([N+](=O)[O-])c1,"inconclusive: 31.6 µM [inhibitor, single point]",–
Clc1ccc(C2[C@H]3CN(CC4CCCCC4)[C@H](c4ccccc4)C34CC2(c2ccccc2)C4)cn1 (some centres not stated),inactive,–
CC(C)(C)NC(=O)C(c1ccc(F)cc1)N(Cc1ccccc1Cl)C(=O)c1ccn[nH]1 (configuration not stated),"inconclusive: 35.5 µM [inhibitor, single point]",–
COc1ccccc1NCCC(=O)OCC(=O)NC1CCCC(C)C1C (configuration not stated),"inconclusive: 50.1 µM [inhibitor, single point]",–
CCOC(=O)c1cc(-c2ccc(/C=C3/C(=O)NC(=O)C(C#N)=C3C)o2)ccc1Cl,"inconclusive: 39.8 µM [inhibitor, partial curve]",–
O=C(Cc1ccc(Cl)cc1)Nc1ccc(S(=O)(=O)N2CCOCC2)cc1,"inconclusive: 35.5 µM [inhibitor, partial curve]",–
CN(C)C=Nc1ncc2c3ccccc3n(CCN(C)C)c2c1C#N,–,inactive: -18.2%
Cc1ccc(/C=C/c2nc3ccccc3s2)s1,–,inactive: -19.4%
CCOC(=O)N1CCC(NC(=O)c2ccc3c(c2)sc2nc(-c4cccc(OC)c4)cn23)CC1,–,inactive: 0.724%
Cn1c(CCNC(=O)c2cc(COc3ccc(F)c(F)c3)on2)nc2ccccc21,"inconclusive: 28.2 µM [inhibitor, single point]",–
Cc1ccccc1N1CCN(C2=NC(=O)/C(=C\c3cccs3)S2)CC1,"inconclusive: 10 µM [inhibitor, partial curve]",–
CCc1ccc(NC(=O)CC(NCc2cccnc2)C(=O)O)cc1 (configuration not stated),–,inactive: 2.58%
CNc1ccc(C(=O)N2CCN(S(=O)(=O)c3ccc4c(c3)OCCCO4)CC2)cc1[N+](=O)[O-],"inconclusive: 28.2 µM [inhibitor, partial curve]",–
COc1ccc(CNC(=O)C(=O)NCC(c2ccco2)S(=O)(=O)c2ccc(Cl)cc2)cc1 (configuration not stated),"inconclusive: 1.41 µM [inhibitor, full curve, poor fit]",–
O=C(CSc1nncs1)N1c2ccccc2Sc2ccccc21,"inconclusive: 17.8 µM [inhibitor, partial curve]",–
Cc1nc(-c2ccc(Cl)cc2)sc1CCNC(=O)C(=O)Nc1ccc2c(c1)OCO2,–,inactive: -12%
CCCC[C@H]1CCCO[C@@](C(=O)NCc2ccc(C)o2)(C(F)(F)F)C1,"inconclusive: 28.2 µM [inhibitor, single point]",–
COc1ccccc1NC(=O)CSc1nc2sc3c(c2c(=O)n1-c1ccccc1)CCN(C)C3,"inconclusive: 22.4 µM [inhibitor, single point]",–
Cc1ccc(NC(=O)c2ccc3c(c2)NC(=O)c2ccccc2S3)c(Cl)c1,–,inactive: -23%
COc1ccc(S(=O)(=O)N(CC(=O)NC(C)c2ccccc2)c2ccc(C)cc2)cc1OC (configuration not stated),–,inactive: -3.43%
